{
  "source": "PubChem BioAssay AID886",
  "about": "(National Center for Advancing Translational Sciences (NCATS), 2007)",
  "note": "Values joined by “and” are separate entries in the source; they are usually repeats but may differ in a detail not shown here. Identical values can stand only once. Among all 73,000 compounds or so, about 2,500 (3.4%) were called active. This list was built around the results that the source calls inconclusive (neither active nor inactive); the mix of calls is not that of the screen. Calls come from the whole dose curve; as a rule, active = well fitted inhibition curve with a large enough effect; inconclusive = small, poorly fitted or top-dose-only effect; inactive = no such curve, though single readings can be large or run the other way. A potency beside an inconclusive call is a rough fit, not a confirmed value. Where a structure was tested more than once in an assay, its records may differ in their call. % is set by controls: 0 for no effect and ±100 for the full control effect; potency is the fitted concentration of half-maximal effect; tags give direction and shape of the fitted curve.",
  "data": [
    {"target": "3-hydroxyacyl-CoA dehydrogenase type-2 (Homo sapiens) (UniProt Q99714)", "test": "qHTS Assay for Inhibitors of HADH2 (Hydroxyacyl-Coenzyme A Dehydrogenase, Type II); note: nearly all actives have a fitted effect of over 60% in size", "conditions": "recombinant HADH2, NADH fluorescence, beta-hydroxybutyryl-CoA; activity change, negative = inhibition: at 57.1 µM (top of the series)", "outline": "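NADH fluorescence (ex 360/em 450 nm) read every 30 s for 4 min; activity taken as last-minus-first time point difference. Enzyme 20 nM, NAD+ 1 mM, beta-hydroxybutyryl-CoA 90 uM, pH 9.0 Tris buffer.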", "values": [
      {"smiles": "Nc1ccccc1C(=O)/C=C\\c1ccc2c(c1)OCO2", "activity change, negative = inhibition": "inactive: -1.81% [at 11.4 µM]"},
      {"smiles": "CCN1CCC[C@@H]1CNC(=O)c1cc(S(N)(=O)=O)ccc1OC", "Potency": "inactive"},
      {"smiles": "CCOC(=O)c1sc(NC(=O)CSc2nnc(Cc3ccccc3)o2)c(C#N)c1C", "Potency": "active: 0.158 µM"},
      {"smiles": "CCCCN(C(=O)c1ccc(Cl)cc1)C1CC2CCC(C1)N2C", "note": "(stereo not given)", "activity change, negative = inhibition": "inactive: 4.12%"},
      {"smiles": "Cc1nc2c(ccc3nc(NC(=O)c4ccc5c(c4)OCCO5)sc32)s1", "Potency": "active: 25.1 µM"},
      {"smiles": "O=C(NCc1ccc2c(c1)OCO2)c1ccc(-c2ccc(Cl)cc2)o1", "Potency": "inconclusive: 31.6 µM [inhibitor, single point]"},
      {"smiles": "Cc1ccc(C)c2[nH]c(=O)c(CN(CC3CCCO3)S(=O)(=O)c3ccc4c(c3)OCCO4)cc12", "note": "(stereo not given)", "activity change, negative = inhibition": "inactive: 193%"},
      {"smiles": "Cc1cc(=O)oc2cc(OCc3ccc(S(=O)(=O)N4CCOCC4)cc3)ccc12", "Potency": "active: 3.98 µM"},
      {"smiles": "COc1ccc(C(=O)Nc2ccc(N3CCN(c4ccc(OC)cc4)CC3)c(C#N)c2)cc1", "Potency": "inconclusive: 39.8 µM [inhibitor, single point]"},
      {"smiles": "CCOC(=O)c1sc(NC(=O)CSc2ncn[nH]2)c(C#N)c1C", "activity change, negative = inhibition": "inactive: -25.1%"},
      {"smiles": "Cc1cc(-c2nnc(SCc3ccccn3)o2)no1", "Potency": "inconclusive: 6.31 µM [inhibitor, single point]"},
      {"smiles": "S=P(c1ccc(N2CCOCC2)cc1N1CCOCC1)(N1CCOCC1)N1CCOCC1", "Potency": "active: 3.98 µM"},
      {"smiles": "COc1cc(NC(=O)C2CC(c3cccc(OC)c3OC)=NO2)cc(OC)c1OC", "note": "(stereo not given)", "Potency": "inconclusive: 31.6 µM [inhibitor, single point]"},
      {"smiles": "O=C(O)CSc1nc2ccc(Cl)cc2[nH]1", "Potency": "inconclusive: 15.8 µM [inhibitor, partial curve]"},
      {"smiles": "CCOC(=O)Cc1c(C)nc2c(C#N)c(C)nn2c1C", "Potency": "inconclusive: 31.6 µM [inhibitor, single point]"},
      {"smiles": "Cn1ccnc1SCC(=O)c1cc2ccccc2o1", "Potency": "inconclusive: 12.6 µM [inhibitor, partial curve]"},
      {"smiles": "O=C(Cn1ccc2ccccc2c1=O)NCCC(=O)NC1CCN(Cc2ccccc2)CC1", "activity change, negative = inhibition": "inactive: 14%"},
      {"smiles": "N#C/C(=C(/N)Sc1ccc(N)cc1)c1ccccc1C(F)(F)F", "Potency": "inconclusive: 39.8 µM [inhibitor, single point]"},
      {"smiles": "CCCC(=O)N(c1ccc2oc(=O)sc2c1)S(=O)(=O)c1ccccc1", "Potency": "active: 31.6 µM"},
      {"smiles": "COc1ccccc1CNc1ncncc1-c1ccoc1", "Potency": "inconclusive: 5.01 µM [inhibitor, partial curve]"},
      {"smiles": "O=C(CSc1nnc2ccccn12)N1CCOCC1", "Potency": "inconclusive: 7.94 µM [inhibitor, single point]"},
      {"smiles": "O=c1c(O)c(-c2ccc(O)cc2)oc2cc(O)cc(O)c12", "Potency": "active: 15.8 µM"},
      {"smiles": "COC(=O)C/C=C/C(C)C(OCc1cccc(Br)c1)C(C)C(OC)C1CCCCC1", "note": "(stereo not given)", "activity change, negative = inhibition": "inactive: 3.17% [at 11.4 µM]"},
      {"smiles": "Oc1ccccc1-c1cc(C(F)(F)F)[nH]n1", "Potency": "inconclusive: 39.8 µM [inhibitor, single point]"},
      {"smiles": "O=C(Nc1ccccc1)C1CCN(c2nccs2)CC1", "Potency": "inconclusive: 39.8 µM [inhibitor, single point]"},
      {"smiles": "Cc1cc(C)nc(NC(=O)CSc2nn(C)c(=S)s2)n1", "Potency": "inconclusive: 15.8 µM [inhibitor, partial curve]"},
      {"smiles": "ICCc1ccccc1", "Potency": "inconclusive: 39.8 µM [inhibitor, single point]"},
      {"smiles": "O=C(c1cc(O)c(O)c([N+](=O)[O-])c1)c1ccccc1F", "Potency": "inconclusive: 3.98 µM [inhibitor, full curve, poor fit]"},
      {"smiles": "COC(=O)c1cc(COc2ccc3ccc(=O)oc3c2)c(C)o1", "Potency": "active: 6.31 µM"},
      {"smiles": "CCn1c(SCC(=O)OC)nc2sc3c(c2c1=O)CCC3", "Potency": "inconclusive: 39.8 µM [inhibitor, single point]"},
      {"smiles": "Cc1c(NC(=O)COc2ncnc3ccccc23)c(=O)n(-c2ccccc2)n1C", "activity change, negative = inhibition": "inactive: 1.63%"},
      {"smiles": "O=c1[nH]ccc2c(O)cccc12", "Potency": "active: 31.6 µM"},
      {"smiles": "Cc1ccc(CCNC(=O)C2CCCN(S(=O)(=O)c3cccc4nsnc34)C2)cc1", "note": "(stereo not given)", "Potency": "inconclusive: 31.6 µM [inhibitor, single point]"},
      {"smiles": "Cc1ccc(C)c(C(=O)CSc2n[nH]c(C)n2)c1", "Potency": "inconclusive: 1.58 µM [inhibitor, single point]"},
      {"smiles": "CCOC(=O)C1C(=O)CC(C)(O)C(C(=O)OCC)C1c1cc(Br)ccc1OC", "note": "(stereo not given)", "activity change, negative = inhibition": "inactive: 20.1%"},
      {"smiles": "CCOc1ccccc1NC(=O)CSc1nnc(-c2ccccn2)n1Cc1ccco1", "Potency": "inconclusive: 5.01 µM [inhibitor, partial curve]"},
      {"smiles": "CCC[C@H]1C[C@H](C(=O)N[C@@H]([C@H]2O[C@@H](SC)[C@@H](O)[C@@H](O)[C@@H]2O)[C@H](C)Cl)N(C)C1", "activity change, negative = inhibition": "inactive: 0.91% [at 25.6 µM]"},
      {"smiles": "O=C(/C=C/c1ccc(O)c(O)c1)OC1C[C@](O)(C(=O)O)C[C@@H](O)[C@H]1O", "note": "(stereo not given in full)", "Potency": "active: 7.94 µM"},
      {"smiles": "COc1cccc(Nc2ncc3ncc(=O)n(C)c3n2)c1", "activity change, negative = inhibition": "inactive: 6.89%"},
      {"smiles": "CN(C(=O)c1cccs1)c1ccccc1C(=O)O", "Potency": "inconclusive: 3.16 µM [inhibitor, partial curve]"},
      {"smiles": "O=C(Nc1ccccc1-c1nc2ccccc2s1)c1ccco1", "Potency": "inconclusive: 39.8 µM [inhibitor, single point]"},
      {"smiles": "CCCCN1C(=O)/C(=C2\\SC(N3CCCCC3)=NC2=O)c2ccccc21", "Potency": "active: 20 µM"},
      {"smiles": "CCOC(=O)Nc1ccc2c(CN3C(=O)NC4(CCCC4)C3=O)cc(=O)oc2c1", "Potency": "active: 31.6 µM"},
      {"smiles": "O=C(c1cnn2c(C(F)(F)F)cc(-c3ccco3)nc12)N1CCCCCC1", "Potency": "inconclusive: 39.8 µM [inhibitor, single point]"},
      {"smiles": "CCOC(=O)N1CCN(C(=O)c2cc3c(=O)n(C)c4ccccc4c3n2C)CC1", "activity change, negative = inhibition": "inactive: -13%"},
      {"smiles": "CCCCC(=O)NCCc1ccc(S(N)(=O)=O)cc1", "Potency": "inconclusive: 31.6 µM [inhibitor, single point]"},
      {"smiles": "CC(=O)c1sc2nc(-c3cccs3)cc(C(F)(F)F)c2c1N", "Potency": "inconclusive: 39.8 µM [inhibitor, single point]"},
      {"smiles": "O=C(CSc1ccc2nnc(-c3ccccn3)n2n1)Nc1ccc2c(c1)OCO2", "activity change, negative = inhibition": "inactive: 4.75%"},
      {"smiles": "Cc1ccc(-c2nc(CS(=O)CC(=O)NC3CCC(C)CC3)c(C)o2)cc1", "note": "(stereo not given)", "activity change, negative = inhibition": "inactive: -1.56%"},
      {"smiles": "CC(C)(C)c1ccc(C(=O)CSc2ncn[nH]2)cc1", "Potency": "inconclusive: 31.6 µM [inhibitor, single point]"},
      {"smiles": "CCCn1c(N)c(C(=O)CSc2nc3ccccc3n2CCC#N)c(=O)n(C)c1=O", "Potency": "inconclusive: 39.8 µM [inhibitor, single point]"},
      {"smiles": "CC(=O)c1c(C)nn(CC(O)Cn2c3c(c4cc(C)ccc42)CCCC3=O)c1C", "note": "(stereo not given)", "Potency": "inconclusive: 39.8 µM [inhibitor, single point]"},
      {"smiles": "CN1CCCCc2c1[nH]c1ccccc1c2=O", "Potency": "inconclusive: 0.794 µM [inhibitor, full curve]"},
      {"smiles": "Oc1cccc(O)c1", "Potency": "inconclusive: 31.6 µM [inhibitor, partial curve]"},
      {"smiles": "CC(C)[C@@H](CC(=O)N[C@@H]1CCNC[C@H]1C(=O)N[C@H](CC(=O)N[C@@H](CCC(=O)O)CC(=O)O)Cc1ccccc1)NC(=O)C[C@H](CO)NC(=O)[C@@H]1CCCC[C@H]1N", "Potency": "inconclusive: 39.8 µM [inhibitor, single point]"},
      {"smiles": "Cc1nn(-c2ccccc2)c2[nH]c(=O)c(CNc3ccc(N4CCOCC4)cc3)cc12", "activity change, negative = inhibition": "inactive: -3.45%"},
      {"smiles": "Cc1cc(C)c2c(n1)nn1c(NCCCN(C)C)cc(C)nc21", "Potency": "active: 31.6 µM"},
      {"smiles": "c1ccc(CNc2ccc3ccccc3n2)nc1", "Potency": "inconclusive: 39.8 µM [inhibitor, single point]"},
      {"smiles": "CC1CC2(CC(C)(C(=O)CSc3nc4ccccc4s3)OC2=O)C(=O)O1", "note": "(stereo not given)", "Potency": "inconclusive: 25.1 µM [inhibitor, single point]"},
      {"smiles": "O=C(NC1CCCc2ccccc21)c1ccc(CNc2c(N3CCOCC3)c(=O)c2=O)cc1", "note": "(stereo not given)", "activity change, negative = inhibition": "inactive: 7.65%"},
      {"smiles": "O=C(Cn1cc(C(=O)c2cccs2)c2ccccc21)NCc1ccc2c(c1)OCO2", "Potency": "inconclusive: 25.1 µM [inhibitor, single point]"},
      {"smiles": "Cc1ccc(NC(=O)Nc2ccc(F)cc2)nc1", "activity change, negative = inhibition": "inactive: -1.06%"},
      {"smiles": "O=Nc1ccc2oc(=O)ccc2c1", "Potency": "inconclusive: 0.631 µM [inhibitor, full curve]"},
      {"smiles": "Cc1ccc2c(c1)N(C(=O)CSc1nncn1C)C(C)(C)c1ssc(=S)c1-2", "Potency": "inconclusive: 25.1 µM [inhibitor, single point]"},
      {"smiles": "CCc1cc(C(=O)OC)c(NC(=O)CCCC(=O)O)s1", "Potency": "inconclusive: 31.6 µM [inhibitor, single point]"},
      {"smiles": "CSc1nnc(-c2ccco2)c(-c2ccco2)n1", "Potency": "inconclusive: 1 µM [inhibitor, full curve]"},
      {"smiles": "COc1cc2c(cc1OC)-c1nncn1C(C)(C)C2", "activity change, negative = inhibition": "inactive: 4.23%"},
      {"smiles": "COc1ccc(C(=O)Nc2nncs2)cc1S(=O)(=O)N1CC(c2ccccc2)CC1=O", "note": "(stereo not given)", "Potency": "inconclusive: 31.6 µM [inhibitor, single point]"},
      {"smiles": "O=C(COc1ccc2c(c1)C(=O)CC1(CCCCC1)O2)NCc1ccccn1", "Potency": "inconclusive: 25.1 µM [inhibitor, single point]"},
      {"smiles": "O=C(O)c1ccccc1-c1ccc(/C=c2\\sc3nc4cc(Br)cnc4n3c2=O)o1", "Potency": "active: 3.16 µM"},
      {"smiles": "CC(c1ccccc1)N1CC(C(=O)N2CCN(c3ccccc3)CC2)CC1=O", "note": "(stereo not given)", "activity change, negative = inhibition": "inactive: 11.3%"},
      {"smiles": "N#Cc1nc(-c2ccco2)oc1N1CCOCC1", "Potency": "active: 25.1 µM"},
      {"smiles": "C[C@@H](CCc1ccc(O)cc1)NCCc1ccc(O)c(O)c1", "Potency": "active: 631 nM and active: 199 nM and active: 126 nM"},
      {"smiles": "COC(=O)c1cc(OC)c(OC)cc1NC(=O)c1ccoc1C", "Potency": "active: 3.98 µM"},
      {"smiles": "COc1ccccc1-n1nnnc1S(=O)(=O)Cc1ccc(Cl)cc1", "Potency": "inconclusive: 12.6 µM [inhibitor, partial curve]"}
    ]}
  ]
}
